The record followed here is PMC4336329 (PLoS ONE, 2015).

About 2,200 (0.71%) of roughly 310,000 compounds showed an effect of 50% or more. Effects have a minus sign here. The list shows a part of the results.

In this test the target is human ether-à-go-go-related gene (hERG) potassium channel (human, UniProt Q12809). Kind of test: primary screen, population patch clamp on CHO cells stably expressing hERG.
Chain of human ether-à-go-go-related gene (hERG) potassium channel (Q12809 whole entry, looked up): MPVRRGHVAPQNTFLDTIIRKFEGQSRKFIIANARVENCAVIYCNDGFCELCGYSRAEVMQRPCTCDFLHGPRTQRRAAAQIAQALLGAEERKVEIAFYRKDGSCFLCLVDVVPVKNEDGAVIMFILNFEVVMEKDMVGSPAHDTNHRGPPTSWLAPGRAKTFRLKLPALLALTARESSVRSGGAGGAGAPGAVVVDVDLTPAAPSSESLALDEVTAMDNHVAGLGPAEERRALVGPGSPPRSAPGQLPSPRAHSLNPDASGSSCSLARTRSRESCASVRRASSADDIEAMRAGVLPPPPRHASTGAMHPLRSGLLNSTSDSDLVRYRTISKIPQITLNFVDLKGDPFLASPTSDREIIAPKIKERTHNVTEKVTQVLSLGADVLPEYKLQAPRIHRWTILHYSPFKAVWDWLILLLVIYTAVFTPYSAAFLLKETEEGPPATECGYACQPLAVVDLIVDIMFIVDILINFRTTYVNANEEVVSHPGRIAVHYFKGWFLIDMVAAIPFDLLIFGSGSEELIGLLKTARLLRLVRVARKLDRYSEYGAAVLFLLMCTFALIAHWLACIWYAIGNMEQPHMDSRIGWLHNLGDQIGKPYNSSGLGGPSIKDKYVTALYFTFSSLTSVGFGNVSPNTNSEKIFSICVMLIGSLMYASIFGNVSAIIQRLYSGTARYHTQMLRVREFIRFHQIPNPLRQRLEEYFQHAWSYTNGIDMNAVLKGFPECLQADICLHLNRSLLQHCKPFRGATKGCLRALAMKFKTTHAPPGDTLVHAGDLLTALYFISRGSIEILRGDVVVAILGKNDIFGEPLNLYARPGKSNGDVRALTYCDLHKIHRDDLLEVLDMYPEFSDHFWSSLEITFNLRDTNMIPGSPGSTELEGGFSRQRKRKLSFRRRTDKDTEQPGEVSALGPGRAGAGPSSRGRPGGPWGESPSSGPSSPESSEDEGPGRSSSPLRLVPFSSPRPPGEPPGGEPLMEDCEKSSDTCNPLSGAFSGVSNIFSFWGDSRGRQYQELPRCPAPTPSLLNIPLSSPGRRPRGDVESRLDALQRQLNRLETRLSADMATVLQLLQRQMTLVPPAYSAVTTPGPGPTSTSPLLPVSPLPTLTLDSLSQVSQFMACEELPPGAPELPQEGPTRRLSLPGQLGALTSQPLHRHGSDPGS
Turning to `CC(=O)Oc1cccc(C2C3=C(CC(C)(C)CC3=O)Nc3ccccc3N2C(C)=O)c1` (centres unmarked), the “hERG current change (%, negative = inhibition) at 1uM” value was 12.2%.
Next, `C/C(O)=C/c1nc2ccccc2[nH]c1=O`: 2.08%.
With `CCOc1cc(NC(=O)c2cccs2)c(OCC)cc1NC(=O)c1cccnc1`, the “hERG current change (%, negative = inhibition) at 1uM” value is given as 17%.
Next, `CNC(=O)c1ccc(-c2ccc(F)cc2)s1`: 6.53%; `NC(=O)c1ccc(-c2ccc(Br)cc2)o1`: 7.39%.
On to `O=C(Nc1cccc(NC(=O)c2ccco2)c1)c1cccc(Br)c1`, for which the “hERG current change (%, negative = inhibition) at 1uM” value was 4.16%.
Regarding `O=C(Cc1ccc(F)cc1)NC(Cc1c[nH]c2ccccc12)C(=O)O` (centres unmarked), the “hERG current change (%, negative = inhibition) at 1uM” value was found to be 12.4%.
In the case of `Cc1cccc(NC(=O)CN2CCN(C(=O)c3cccc(-n4cnnn4)c3)CC2)c1C`, the “hERG current change (%, negative = inhibition) at 1uM” value was -11.9%.
On to `CCCCCC(=O)N1CCN(CCN=CC2=C(O)CC(c3ccco3)CC2=O)CC1` (centres unmarked), for which the “hERG current change (%, negative = inhibition) at 1uM” value is reported as -74.7%.
Take `CN(Cc1ccccc1)C(=O)COC(=O)c1ccc2ccccc2n1`: the “hERG current change (%, negative = inhibition) at 1uM” value is listed as 1.91%.
Take `CSc1ccccc1C(=O)N1CCOCC1`: the “hERG current change (%, negative = inhibition) at 1uM” value was determined as 5.71%.
Consider `CN(C)c1nc(N)nc(CSc2nnnn2-c2ccccc2)n1`, for which the “hERG current change (%, negative = inhibition) at 1uM” value is reported as 8.57%.
With `COc1ccc(C(=O)NNC(=S)NC(=O)c2cccs2)cc1`, the “hERG current change (%, negative = inhibition) at 1uM” value is reported as 9.11%.
Regarding `COc1ccc(Nc2c3c(c(C#N)c4nc5ccccc5n24)CCC3)cc1`, the “hERG current change (%, negative = inhibition) at 1uM” value worked out at 7.64%.
`C/C(=C1/SC(N2CCOCC2)=NC1=O)c1ccc(Cl)cc1`: the “hERG current change (%, negative = inhibition) at 1uM” value amounted to 7.69%.
For the molecule `Cc1ccc(C)c(NC(=O)c2cc(-c3cc(C)ccc3O)n[nH]2)c1`, the “hERG current change (%, negative = inhibition) at 1uM” value stood at 15.9%.
Turning to `CCC(C)c1ccccc1NC(=O)C(C)N(C)Cc1cccc(OC)c1.O=C(O)C(=O)O` (centres unmarked), the “hERG current change (%, negative = inhibition) at 1uM” value is 6.47%.
Next, `Cc1oc(-c2ccccc2)nc1CN1C(=O)CN=C(c2ccccc2)c2ccccc21`: 0.0675%; `CCc1nnc(NC(=O)CSc2nc3cc4c(cc3cc2C)OCCO4)s1`: 5.85%.
As for `COc1ccc(Nc2nc(-c3cccs3)cs2)cc1`, the “hERG current change (%, negative = inhibition) at 1uM” value is 15.4%.
On to `OC1CCN(Cc2nc(Cc3ccccc3Cl)no2)CC1`, for which the “hERG current change (%, negative = inhibition) at 1uM” value came to 11%.
On to `CC(C)[C@H](NC(=O)c1ccccc1)C(=O)NCCc1ccccc1`, for which the “hERG current change (%, negative = inhibition) at 1uM” value came out at 10.7%.
Turning to `CSc1cccc(NC(=O)CCCOc2ccc(Cl)cc2C)c1`, the “hERG current change (%, negative = inhibition) at 1uM” value was determined as 5.19%.
Take `O=C(Cc1cc(=O)[nH][nH]1)N/N=C/c1c(F)cccc1Cl`: the “hERG current change (%, negative = inhibition) at 1uM” value is 5.37%.
Consider `COc1ccc(C)cc1S(=O)(=O)N(CC(=O)Nc1cccc([N+](=O)[O-])c1)c1cc(C)cc(C)c1`, for which the “hERG current change (%, negative = inhibition) at 1uM” value worked out at 8.09%.
The same measure for `O=C(Cn1c(=O)oc2cc(S(=O)(=O)NCc3ccccc3)ccc21)N1CCCC1`: 10.6%; for `O=C(CN1CCc2cc3c(cc2C1)OCCCO3)Nc1cccc(Br)c1`: 12.8%; for `CN(C)c1nc(C(N)=O)nc(N2CCOCC2)n1`: 7.24%.
With `CCN(Cc1ccccc1)C(c1cccc(C#N)c1)c1nnnn1C(C)(C)C` (centres unmarked), the “hERG current change (%, negative = inhibition) at 1uM” value is 11.3%.
For the molecule `COc1cccc(F)c1C(C[N+](=O)[O-])c1c(N)n(C)c(=O)n(C)c1=O` (centres unmarked), the “hERG current change (%, negative = inhibition) at 1uM” value is on record as 5.57%.
`CNC(=S)N/N=C/c1ccc2c(c1)OCCO2`: the “hERG current change (%, negative = inhibition) at 1uM” value was 8.3%.
Take `Cc1ccnc(NC(=O)CCC(=O)N(CC(=O)NCc2ccccc2)Cc2ccccc2)c1`: the “hERG current change (%, negative = inhibition) at 1uM” value was 10.9%.
Turning to `Cc1noc(C)c1CSCC(=O)N1CCN(c2ccc([N+](=O)[O-])cc2)CC1`, the “hERG current change (%, negative = inhibition) at 1uM” value is -83.4%.
The same measure for `COC(=S)N/C(=N\S(=O)(=O)c1ccc(Cl)cc1)c1ccccc1`: 13.7%.
The same measure for `CN1CCN(c2cnn(-c3ccccc3)c(=O)c2Br)CC1`: 13.2%; for `CCc1ccc(NC(=O)CSc2nnc(-c3ccccn3)n2C)cc1`: -0.802%.
For the molecule `Cc1ccc(N(CCC#N)C(=O)CSc2nc3ccccc3c(=O)[nH]2)cc1`, the “hERG current change (%, negative = inhibition) at 1uM” value stood at 6.93%.
With `CCC(=O)Nc1cccc(NC(=S)NC(=O)Cc2ccccc2)c1`, the “hERG current change (%, negative = inhibition) at 1uM” value amounted to 15.5%.
On to `Cc1noc(NS(=O)(=O)c2ccc(N/C=C\C(=O)c3ccc4c(c3)OCO4)cc2)c1C`, for which the “hERG current change (%, negative = inhibition) at 1uM” value was 6.54%.
Next, `COc1ccc(/C=C2\Sc3ccc(C(=O)N4CCCC4)cc3N(C)C2=O)cc1OC`: 15.4%; `Cc1cc(Cl)ccc1OCC(=O)OCC(=O)NC1CCCC1`: 9.16%.
Consider `CC(=O)c1cccc(NC(=O)N2CCCC2C(=O)Nc2cc(C)ccc2C)c1` (centres unmarked), for which the “hERG current change (%, negative = inhibition) at 1uM” value is -2.7%.
Next, `CCOC(=O)Cn1cc(/C=C(/C#N)C(=O)NC(C)C)c2ccccc21`: 16.1%.
Turning to `COC(=O)Cc1ccc(NC(=S)NCCC(C)C)cc1`, the “hERG current change (%, negative = inhibition) at 1uM” value was 8.85%.
As for `C=CCOc1ccc(/C=N/NC(=O)c2c(C)nc3ccc(Cl)cn23)cc1`, the “hERG current change (%, negative = inhibition) at 1uM” value came out at 15.5%.
Consider `CCOc1ccc(NC(=O)c2cc(SC)ccc2Cl)cc1`, for which the “hERG current change (%, negative = inhibition) at 1uM” value amounted to 14.1%.
With `CCC(C)c1ccc(NC(=O)N2CCOCC2)cc1` (centres unmarked), the “hERG current change (%, negative = inhibition) at 1uM” value is given as 9.12%.
`COc1ccc(C2(C(=O)Nc3ccc(C)c(C)c3)CCOCC2)cc1`: the “hERG current change (%, negative = inhibition) at 1uM” value is 14.8%.
Next, `COc1ccc(-c2noc(=O)n2CC(=O)N2CCC(Cc3ccccc3)CC2)cc1`: 18.7%; `CC(=O)c1ccc(S(=O)(=O)N2CCC(Oc3ccc(-n4cnnn4)cc3)CC2)cc1`: 17.6%.
The same measure for `COc1ccc(NC(=O)c2sc(=S)[nH]c2N)cc1`: 16.1%; for `Cc1nnc(N2CCCC(C(=O)NCc3ccc(OC(C)C)cc3)C2)c2nn(-c3ccccc3)c(C)c12` (centres unmarked): 3.08%; for `OCC1(C2=NOC(O)(C(F)(F)F)C2)CCCCC1` (centres unmarked): 13.3%.
As for `O=c1[nH]cnc2c1C(c1ccc(Cl)cc1)c1c(nc[nH]c1=O)O2`, the “hERG current change (%, negative = inhibition) at 1uM” value is 1.37%.
For the molecule `Cc1c(NC(=O)C(C)OC(=O)COc2cccc3c2OC(C)(C)C3)c(=O)n(-c2ccccc2)n1C` (centres unmarked), the “hERG current change (%, negative = inhibition) at 1uM” value was 10.6%.
As for `COc1ccc(C2(C)NC(=O)N(CC(=O)Nc3ccc4[nH]c(=O)[nH]c4c3)C2=O)cc1` (centres unmarked), the “hERG current change (%, negative = inhibition) at 1uM” value was 8.1%.
On to `O=C(NCCc1ccccc1)c1ccc2nc(N3CCOCC3)sc2c1`, for which the “hERG current change (%, negative = inhibition) at 1uM” value is listed as 10.7%.
Consider `O=C(COC(=O)c1cc2c(s1)CCCC2)NCc1ccccc1Cl`, for which the “hERG current change (%, negative = inhibition) at 1uM” value came out at 2.75%.
The same measure for `Clc1ccc(Nc2nc3ccccc3n3nnnc23)cc1`: 6.95%; for `NC(=O)c1ccccc1NC(=O)COc1ccc(Cl)cc1`: 10.8%; for `Br.Nc1nc(-c2ccccc2)c(N=Nc2ccc(Cl)cc2)s1`: 10.1%.
As for `CSc1ccc(/C=C(/NC(=O)c2ccco2)C(=O)N2CCCCC2)cc1`, the “hERG current change (%, negative = inhibition) at 1uM” value amounted to 7.85%.
The same measure for `COc1ccc(-c2cnc3ncnn3c2N)cc1`: 11.7%.
`COc1ccc(CNC(=O)c2ccc(CNc3c(NC4CCCCC4)c(=O)c3=O)cc2)cc1`: the “hERG current change (%, negative = inhibition) at 1uM” value worked out at 12.5%.
Take `CCCCCCn1c(CN2CCN(C(=O)c3ccco3)CC2)nc2c1c(=O)n(C)c(=O)n2C`: the “hERG current change (%, negative = inhibition) at 1uM” value is -46.6%.
On to `Cc1ccccc1OCC(=O)OC(C(=O)c1ccccc1)c1ccccc1` (centres unmarked), for which the “hERG current change (%, negative = inhibition) at 1uM” value is 11%.
Next, `O=C1N2c3ccccc3CCc3cccc(c32)C1(O)C(F)(F)F` (centres unmarked): 5.26%; `CCOC(=O)C1CCN(C(=O)c2cccc(NC(=O)C(CC)CC)c2)CC1`: 6.96%.
Next, `OC(CNCCC(c1ccccc1)c1ccccc1)COc1ccccc1` (centres unmarked): -18.7%; `C[N+]12CN3CN(CN(C3)C1)C2.[I-]`: 16.3%; `Cn1c(CCNS(=O)(=O)c2ccc(F)cc2)nnc1SCc1cccnc1`: 15.4%.
Take `c1ccc2cc(Sc3ncnc4c3oc3ccccc34)ccc2c1`: the “hERG current change (%, negative = inhibition) at 1uM” value is on record as 16.8%.
Turning to `CCC[N+](CC#Cc1ccccc1)(CCC)CC(=O)OC`, the “hERG current change (%, negative = inhibition) at 1uM” value amounted to 10.3%.
As to `COc1nccnc1NS(=O)(=O)c1ccc(NC(=S)NC(=O)c2cccc(F)c2)cc1`, the “hERG current change (%, negative = inhibition) at 1uM” value stood at 12.7%.
On to `Cc1ccc(NC(=O)/C(=C/c2cccc([N+](=O)[O-])c2)NC(=O)C2CCCCC2)c(C)c1`, for which the “hERG current change (%, negative = inhibition) at 1uM” value was -6.3%.
Turning to `O=C(NCc1ccccc1F)c1ccc2c(c1)OCCO2`, the “hERG current change (%, negative = inhibition) at 1uM” value came to 11.8%.
For the molecule `CCCC(=O)Nc1nnc(-c2ccc3c(c2)OCCO3)o1`, the “hERG current change (%, negative = inhibition) at 1uM” value was 5.57%.
In the case of `COc1cccc(CN(C)C(=O)c2ccc(N3CCCC3)c([N+](=O)[O-])c2)c1`, the “hERG current change (%, negative = inhibition) at 1uM” value worked out at 5.56%.
On to `COc1cccc(C(=O)N2CCN(C3CCN(Cc4ccccc4)CC3)CC2)c1OC.O=C(O)C(=O)O`, for which the “hERG current change (%, negative = inhibition) at 1uM” value is 4.11%.
As to `Cc1nc2oc3c(NCC4CCCO4)ncnc3c2c2c1COC(C)(C)C2` (centres unmarked), the “hERG current change (%, negative = inhibition) at 1uM” value is given as -0.787%.
On to `COc1ccc(N2CCN(C(=O)c3ccccc3Br)CC2)c([N+](=O)[O-])c1`, for which the “hERG current change (%, negative = inhibition) at 1uM” value was -5.46%.
In the case of `Cc1cccc(NC(=O)C2CC(=O)OC23CCCC3)c1` (centres unmarked), the “hERG current change (%, negative = inhibition) at 1uM” value stood at 15%.
On to `CC1N(C(=O)N(C)C)CCN1S(=O)(=O)c1ccccc1` (centres unmarked), for which the “hERG current change (%, negative = inhibition) at 1uM” value turned out to be 18.2%.
As for `O=C(Nc1ccc(Cl)cc1Cl)c1ccc2c(=O)n3c(nc2c1)CCC3`, the “hERG current change (%, negative = inhibition) at 1uM” value is on record as 3.65%.
The same measure for `COc1ccc(CNC/C=C/c2ccccc2)cc1.Cl`: -0.786%.
Next, `Cc1ccc2nc(NC(=O)CC3Oc4ccccc4NC3=O)sc2c1` (centres unmarked): 9.25%; `C=CCn1c(SCc2nc3ccccc3c(=O)[nH]2)nc2ccccc2c1=O`: 2.82%; `CC(C)CC(=O)NC(=S)Nc1ccc(CN2CCOCC2)cc1`: 7.01%.
`N#Cc1cnn(-c2nc(SCc3ccccc3)nc3sc4c(c23)CCCC4)c1N`: the “hERG current change (%, negative = inhibition) at 1uM” value was 9.25%.
